This is one part of the list.

The target of the test is T1, OsWOX13 (Oryza sativa, UniProt Q5QMM3 1-267).
T1 sequence: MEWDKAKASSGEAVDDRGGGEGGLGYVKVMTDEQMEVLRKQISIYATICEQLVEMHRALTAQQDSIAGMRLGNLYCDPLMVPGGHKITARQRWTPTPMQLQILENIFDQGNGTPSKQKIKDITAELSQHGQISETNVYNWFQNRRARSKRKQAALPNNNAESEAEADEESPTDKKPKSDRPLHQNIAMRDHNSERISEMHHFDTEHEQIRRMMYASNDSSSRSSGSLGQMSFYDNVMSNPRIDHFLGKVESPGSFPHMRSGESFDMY
As to the kind of experiment: protein-binding microarray (RPBM); PBS, 2% BSA, 51.3 ng/ul salmon testes DNA, 50 uM zinc acetate, 200 nM TF, 25 C, 1 h; high values mean tight binding. As to conditions: protein: recombinant; tags: N-terminal polyhistidine and DsRed monomer fusion (pET32a); label: CyDye5-dUTP incorporated in the synthesized complementary strand; 3' TTTTT single-stranded linker to array surface; dsDNA, one strand shown. A digest of the protocol:
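The binding signal is fluorescence intensity per feature, in arbitrary units, read on an Axon 4000B scanner. Polyhistidine- and DsRed-tagged transcription factors (N-terminal fusions) from E. coli BL21-CodonPlus were purified on Ni–NTA and applied at 200 nM for 1 h at 25 °C to a double-stranded, BSA-blocked custom Agilent array in buffer with 50 µM zinc acetate.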
As for “TATTATTGACAGAAATAGGAGATTTGTCCCATCTTATTTTCGGAGTCACCTAGTGCAG”, the binding signal is 22600 fluorescence intensity (a.u.).
As for “TTCTGAAATTAGGCAATTGTTTATGGGGATCTCATCCTTTCGGAGTCACCTAGTGCAG”, the figure is 3940 fluorescence intensity (a.u.); as for “AAACTTGATGATTGTTCTGTATTCTTATTTCTGAACAAAACGGAGTCACCTAGTGCAG”, 9930 fluorescence intensity (a.u.); as for “GGATGAAATTAGCCCATCAGCAATTACGTGTAGGCCGTAGCGGAGTCACCTAGTGCAG”, 3690 fluorescence intensity (a.u.).
As for “GCTCTAATAATTGAATAATTTGATTTGTTTTATTTAAATCCGGAGTCACCTAGTGCAG”, the figure is 30100 fluorescence intensity (a.u.); as for “TCTTATCATTAGATTGGATTAGTATGAAGATAGCAGTTATCGGAGTCACCTAGTGCAG”, 16700 fluorescence intensity (a.u.).
Regarding “GCACTATCAATTCTTCTTGATTCTTCTTTGTATTTGGATTCGGAGTCACCTAGTGCAG”, the binding signal is 3370 fluorescence intensity (a.u.).
The same measure for “TGGGCAGCAGCTTGATTTGATTGCTTCATTTATCAAGTTGCGGAGTCACCTAGTGCAG”: 13600 fluorescence intensity (a.u.).
The same measure for “TGCTAATCAGCCATTAGCAGCCAAAATAGCACATCAGCTACGGAGTCACCTAGTGCAG”: 4580 fluorescence intensity (a.u.); for “TTATTAAATTTTGATCAAACTTCAATGTTTCAAAATTGAACGGAGTCACCTAGTGCAG”: 7080 fluorescence intensity (a.u.); for “CCGGTCGGATCTAATTAATTTACCTCCTCCACCTCCTCCTCGGAGTCACCTAGTGCAG”: 7380 fluorescence intensity (a.u.).
The same measure for “AATGACATGGCAATCTCACCTTGGAGGTTTGTGCTTTGAACGGAGTCACCTAGTGCAG”: 4460 fluorescence intensity (a.u.); for “GATGATAAATTAAGTCACAATAAATAAATAATAATAATATCGGAGTCACCTAGTGCAG”: 5820 fluorescence intensity (a.u.); for “AACCAGCTCGTCAATTAATTATTGTGATTACGTTTCATCTCGGAGTCACCTAGTGCAG”: 42400 fluorescence intensity (a.u.).
As to “CTCAAATACAAATTTGTATTTCCAAAGACGAACGAACTTACGGAGTCACCTAGTGCAG”, the binding signal is 3190 fluorescence intensity (a.u.).
Take “TAAAGTTGAAAGTTTGATTGAAATTGAAATGATGTAACGGCGGAGTCACCTAGTGCAG”: the binding signal was 33600 fluorescence intensity (a.u.).
As for “CATGAAAATTAATTTAGATAGAAGGTTATGATTACAATATCGGAGTCACCTAGTGCAG”, the binding signal was 13800 fluorescence intensity (a.u.).
As for “TTCCTTGTCTCCTCAATCTTCTCTTTTGATGAATACGAGCCGGAGTCACCTAGTGCAG”, the figure is 3880 fluorescence intensity (a.u.); as for “GATGAGAGATTGAGAGGAGGAATTCAATGTGGGCTTCTCCCGGAGTCACCTAGTGCAG”, 6460 fluorescence intensity (a.u.); as for “CCTGCAGATCCTGATTGGAATTTGGACCTTCTCCTCCTCCCGGAGTCACCTAGTGCAG”, 27100 fluorescence intensity (a.u.).
As for “GTAGTTGATAATAATGTATTAATTAATGGTCAAAGTAAAGCGGAGTCACCTAGTGCAG”, the figure is 15500 fluorescence intensity (a.u.); as for “GTGATGAGTGATGACCCGGAGAATGAGAGAGGCGACTGTGCGGAGTCACCTAGTGCAG”, 3800 fluorescence intensity (a.u.).
As for “AGCTAATTAACACCCTTTTAAGTGTTCATAAACAAATACACGGAGTCACCTAGTGCAG”, the binding signal is 15100 fluorescence intensity (a.u.).
The same measure for “AGACGCATCTCCTCAATCATGCATCAACGTGCGTCATCTGCGGAGTCACCTAGTGCAG”: 3790 fluorescence intensity (a.u.); for “ATTAAATAAAATAAATCACCGCATCATTGCTTTTCTTTCCCGGAGTCACCTAGTGCAG”: 3740 fluorescence intensity (a.u.).
Take “GTTTGATTTCTAGTAGTGGGTGTTTATGTTGTAGCTTGTACGGAGTCACCTAGTGCAG”: the binding signal was 14500 fluorescence intensity (a.u.).
The same measure for “GCTTAATCACATTGTTGCGCCCCTTCTTATCCTCTTCTTGCGGAGTCACCTAGTGCAG”: 4600 fluorescence intensity (a.u.); for “TAAAATTTGACAGATATAATTACAGTACAATCGTAGTGTACGGAGTCACCTAGTGCAG”: 43500 fluorescence intensity (a.u.).
The same measure for “AGCTTGATGGGGAGGCTTCTCGATGGCGGCCGTCGCCCGTCGGAGTCACCTAGTGCAG”: 4520 fluorescence intensity (a.u.); for “CTATATAATTAAGGTAGGTAGATAGAGGAGAGGGTGGGCGCGGAGTCACCTAGTGCAG”: 4680 fluorescence intensity (a.u.).
For “ACCGTACTTTCAATCACTGGAGAATGAGGAATTTAATTCACGGAGTCACCTAGTGCAG”, the binding signal was 3540 fluorescence intensity (a.u.).
“AAGCCTAATTAATCCGTCATTAGCAACTGTTTACTCTAGCCGGAGTCACCTAGTGCAG”: the binding signal is 27900 fluorescence intensity (a.u.).
The same measure for “AATTAATTAGTCTCAATAGATTCGTCTCGCGAATTAGTCTCGGAGTCACCTAGTGCAG”: 29300 fluorescence intensity (a.u.); for “AATCTATATTGTAAATTAATGGTACTCTACAAATTGTACTCGGAGTCACCTAGTGCAG”: 4180 fluorescence intensity (a.u.); for “CAATGCTTGCTTGATTGGGAGCGCGTCGTCGAGGGCGTCGCGGAGTCACCTAGTGCAG”: 14400 fluorescence intensity (a.u.).
As for “ATAGGGAAATTGGAAAGGGATTGAGCGTGAGGCGGATCCACGGAGTCACCTAGTGCAG”, the figure is 4440 fluorescence intensity (a.u.); as for “CGAACTTTTGTCAATTAATGCCAATATTAGCACACGTGGTCGGAGTCACCTAGTGCAG”, 13600 fluorescence intensity (a.u.); as for “AGTAATAACATTTTCAATCCAAGACAAATTTATTATGAAACGGAGTCACCTAGTGCAG”, 3680 fluorescence intensity (a.u.).
As for “AATCCAATCACCCAATCCATTCGTCGCCGCCGCCGCCGCCCGGAGTCACCTAGTGCAG”, the figure is 22000 fluorescence intensity (a.u.); as for “ATGACTTGACGAGGTAAATAAAATTGGACCGGGCAGCAAACGGAGTCACCTAGTGCAG”, 3900 fluorescence intensity (a.u.); as for “TTGAAGTTATCATAATTTGAAATTCAAATTCAAATTGTGCCGGAGTCACCTAGTGCAG”, 4770 fluorescence intensity (a.u.).
For “ATGAAAATTTGATGACATCAATTATTAAAATTTGTATTCACGGAGTCACCTAGTGCAG”, the binding signal was 26400 fluorescence intensity (a.u.).

The values are drawn from PMC7819943, “Rice protein-binding microarrays: a tool to detect cis-acting elements near promoter regions in rice”.
